Measurements: the supplement of paper PMC11417369
This is one part of the list.

tested on: PfSIP2 AP2 domain 1 (GST-tagged); assay: gcPBM binding intensity (ln(normalized median fluorescence intensity)); higher = stronger DNA binding
Outline: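 An Agilent 4 × 180k array of primer-extended double-stranded 36-bp intergenic genomic probes, with negative controls, was incubated for 1 h with GST-tagged P. falciparum DNA-binding domains expressed in E. coli. Alexa488 anti-GST antibody detected bound protein, scanned at 488 nm. Binding intensity is the highest Masliner-normalised natural-log median intensity across replicate spots of either probe orientation.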

Sequence | gcPBM binding intensity (ln)
AAGTTTTTTTTTATCACACACAAAAAAAAAAATATA [CACACA_site1362] | 7.11
AAAAAAAAAAAAAAGTGTACCTTCAAAATAATATTG [XGTACX_site2844] | 7.09
ATAAATATAAAACACACACACATATTATATATATAT [CACACA_site3064] | 9.06
TCTTTCCTTATTAAAACACACAAATACATTATTTAA [CACACA_site2147] | 7.13
CCTTTTTCTACTTTCTCACACATATTAAGAATTATA [CACACA_site5621] | 7.52
CACAAATATATACATACACACATATATACACATATA [CACACA_site8024] | 7.19
AAAACGCAGTTTAATATACACACCAAAAAAAAAAAA [CACACA_site3036] | 6.91
TTTGAGATGTGGTGTACACAAAATTAGGTACACATC [CACACA_site5773] | 7.38
TGTTTTTAAAAATATACACACACAGATATTATATAT [CACACA_site8162] | 7.12
TTTTATATTTATTTTTGTACATAAATGATCTCAAAT [XGTACX_site7768] | 6.84
TAAAATATGTCATGGGTGCTTCTTTTTATACCTATG [GTGCAC_site9888] | 7.85
AAAAAAAAAAAATTATGTACATATTATATATAATGG [XGTACX_site2885] | 6.92
AAATATTATAATAATTGTACTATATATACAGTTATT [XGTACX_site1963] | 6.93
ATATATATATATTTATGTACGCATTTATAGACGTAG [XGTACX_site6031] | 8.83
TATGATAACCATAATTGTACAGAATGAAACGTAAAT [XGTACX_site1653] | 7.26
AGAAAAAAAAAAAAAAATAAAAAAATAAATAAATAA [GTGCAC_negctrl_site161] | 6.7
ACTTAAATAATACATACACACATGTACTTACAGAAA [CACACA_site8458] | 7.32
AAAAAAAAAAAAAACACATGCAGAAGAAAAAAAATA [TGCATGCA_site545] | 7.22
AATTGTTTTTTTTTCTTATTTTATGTTATACACACA [TGCATGCA_negctrl_site380] | 6.94
AAATGAACATATATGTGTACTTATATTTTTCTAAAT [XGTACX_site3388] | 7.1
ATATATTTTTCTTTACGTACGAAGCAAAATAACATT [XGTACX_site8145] | 7.05
AAAAAAAAAAAAAAAGTGCATATATAAATATTGTAT [GTGCAC_site9459] | 9.58
TCATTAAATGTTTAGGTGCATACTTTAATTTTTAAT [GTGCAC_site9906] | 9.99

Sequence | gcPBM binding intensity (ln)
TATTAATTTCGGGAAGTGCATTATGTTTATAGAATA | 8.44
ATTATATAAGTACACAAACAAGTATGAGATTCAAAA [GTGCAC_negctrl_site119] | 7.17
TGTTTTAAACTAATTTGTACATAGTTATTTATATTT [XGTACX_site7196] | 6.8
CCATATATTTGGTATAGTACTTTTTATTTTATTTCA [XGTACX_site8933] | 6.96
CATATACATTGTATATGTACATATATATATATATAT [XGTACX_site3772] | 9.32
GATTATATATTAAAAAGTACTTTATAAATACTTCTA [XGTACX_site8992] | 7.05
TGATGCAAAATATATACACACATATATATATATATA [CACACA_site3052] | 9.36
TATGGGTTTATATAGGTGCAATATATGTATATATAA | 10.2
TATACCACCCGATATACACACTTGTAGACATCTTTT [CACACA_site4268] | 6.93
ACAAAACTCTTTAATTGTACAAATATAATATAAAAA [XGTACX_site5690] | 7.05
TATATAGTTTATATTTGTACATATAGACATTTATAA [XGTACX_site6414] | 6.9
AGCAATATTTATTAAAGTACGTAAAAAAAATTCTCA [XGTACX_site6550] | 7.16
CAAAGCATAGTATGATGTACAAATGTTCCTATAATA [XGTACX_site8642] | 6.96
TCTTATTATAAAAGGAGTACATCAATTAGATGTTCC [XGTACX_site8465] | 6.76
ATATATATATAATATTGTACATAGTAGACATCACAC [XGTACX_site4649] | 8.87
TATATATGTATAAGAGTGCATATGCATATATGTATA [GTGCAC_site9692] | 9.54
TAAAATATGGAAATCACACATTTATTAAAATATATA [CACACA_site4623] | 6.59
TTATGTTTATACACTACACACATTATTCATAAAAAA [CACACA_site4637] | 7.22
CATCTTAAATAAGAACGTACATTTTTTTTGATGAGA [XGTACX_site3462] | 6.79
AAGACAAAACAAAGAAGTACATATATATATATATAT [XGTACX_site4067] | 9.37
GGAGACTTTGTACAAACACACACATGAACACAATAT [CACACA_site8376] | 7.28
TAATTTAAAAATGAACATATATATGTATGTAAATAT [TGCATGCA_negctrl_site135] | 7.28
ATGTATATATTTATGTGTACTTAAATTTTTTTTTGT [XGTACX_site8179] | 7.25

Sequence | gcPBM binding intensity (ln)
TTTTAATATATAGAGTAACAAATTTGTCTATTAATA [CACACA_negctrl_site1495] | 6.76
TCTTCACCACGTGGAAGTACATAAAAAGATACACAA [XGTACX_site4747] | 7.23
AATAATATTAACACACGTACAAAAGCAAACAACCAA [XGTACX_site7410] | 7.38
ATACATTCTAATACGTGTACATATATATATATATAT [XGTACX_site1881] | 9.29
ATAAAACAAAAACACACACACATACACAAAAAAAAA [CACACA_site3848] | 7.05
TTTATATTATTATATCTTATTAATTATTTATCATTT [TGCATGCA_negctrl_site73] | 6.86
ATATTAAAATACAGTGCATGTTAAAAATATATTATA [TGCATGCA_site977] | 9.88
TTATAACATCTTAAATGTACAAATATGTGCTTATTT [XGTACX_site7285] | 6.85
ATGTATTTATATACTTGTACGTAAGATGTATTATAT [XGTACX_site908] | 7.26
TAAAAAAAAAACATCTGTACCAATTTTTATGTATAA [XGTACX_site5196] | 6.75
AATAAAAGTTCACCTGTACACACATATATATATGTA [CACACA_site8500] | 7.17
ATTGGAAAATATGTTATATATATATATATATATATG [CACACA_negctrl_site116] | 7.82
TTAATTCGTACATACACACGCACATATATATATATA [CACACA_site1469] | 9.36
AATAATAATAGAAACACACACACATCTTTAATAATA [CACACA_site4805] | 6.87
ATATTTTTTTTCTACACACATACAAATATATATTAT [CACACA_site2359] | 7.44
ACATGCAACCATTCGGGTACAGAAATAAATATATAC [XGTACX_site4174] | 7.18
CTTTTTCGCATGAAAAGTACATGAAATATATTACAT [XGTACX_site8971] | 6.86
AATAACTTTTTAAACACACACACATATAAATAAATA [CACACA_site6196] | 7.23
GGTTATAACGCACATGCACACGTAAATAAATATTAT [CACACA_site9277] | 7.74
TAAATTTTAATAAATACACACAAATTTTAATTCTAT [CACACA_site6039] | 6.66
TATTGTATATAATAAACACACAATATTAAAAATATA [CACACA_site1057] | 6.8
TATTTAAAAAACACATGTACGAGTATTATATATAAA [XGTACX_site6654] | 7.02
TAATATACTTAATACACACACGAATATTTATAAATA [CACACA_site6675] | 7.03

Sequence | gcPBM binding intensity (ln)
GATTCATCTAAACACCGTACATATTATATATATATA [XGTACX_site6030] | 9.22
CCCCTCGAAATAATTTGTACGAATATATTGTCTGTA [XGTACX_site8308] | 7.62
AAACTCAACTTATATACACACAATCTTTTTTTTTTA [CACACA_site29] | 6.8
AGTATATTAAAAAATACACACGTATTATATCTACAT [CACACA_site8844] | 6.95
GTTCATAAATTAAACACACACACACCGCTGGATACC [CACACA_site5779] | 7.3
GAAACATACATTTTTTGTCCGTAAGTATTATAATAA [XGTACX_site3273] | 6.94
ATACATCAAGGACACACACACACACCCACACCCACA [CACACA_site8013] | 7.16
ATTTTGCCTGACCCATGTACATATTATTTTTTGCAT [XGTACX_site2258] | 7.51
CTATGAATAGGAAAAAGTACTAAACCTTTATATATA [XGTACX_site5022] | 7.04
CACATAAAAATTGTGTTGCACTTTTATTCTTATATC | 8.31
AGTAGAATATCCCCTACACACCCAAATAATTTACAA [CACACA_site8339] | 6.96
TTTATATATTTTAGGTGTACATAAATTTTTATATAT [XGTACX_site5597] | 7.2
AACTTACTTGGACATACACACATATATATATATATA [CACACA_site2978] | 9.54
TAACTTAATATTAATGCACACAATTTATATATATAT [CACACA_site3903] | 8.99
TCAAATATTCATAAATGTACATTTATTTTTCTCCTT [XGTACX_site5827] | 6.74
CATAGACACGAACATACACACGGACATACATACGGA [CACACA_site8101] | 6.98
GTAACAAATTAATAGTGTACATATTTTAAAAAAATA [XGTACX_site7150] | 7.18
AATGCAAAGGTGAAAGAACACACAAAAAAAAAAAAA [CACACA_site9333] | 6.87
GTGTTAAATTTTTGAACATGCAAGTTTTATTATTGA [TGCATGCA_site478] | 6.99
ATATTATAAATATAATGTACGTTTTAATTTCATGTT [XGTACX_site3557] | 6.86
